From PubChem BioAssay AID540317 (National Center for Advancing Translational Sciences (NCATS), 2011)
Hit rate of the full screen: of about 390,000 compounds, about 2,200 (0.56%) were called active. Inconclusive results, whose numbers are uncertain, are shown with a selection of clear calls. Calls follow the shape of the dose curve; as a rule, active = well fitted inhibition curve with a large enough effect; inconclusive = small, poorly fitted or top-dose-only effect; inactive = no such curve, though single readings can be large or run the other way. A potency beside an inconclusive call is a rough fit, not a confirmed value.

Target: Chromobox protein homolog 1 (Homo sapiens) (UniProt P83916)
Sequence of UniProt P83916 (P83916 whole entry, looked up): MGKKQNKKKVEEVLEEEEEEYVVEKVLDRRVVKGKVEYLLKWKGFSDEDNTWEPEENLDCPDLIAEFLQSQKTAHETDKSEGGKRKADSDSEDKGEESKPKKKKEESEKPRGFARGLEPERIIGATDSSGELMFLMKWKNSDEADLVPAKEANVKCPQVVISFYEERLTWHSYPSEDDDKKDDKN
Experiment: HTS for Inhibitors of HP1-beta Chromodomain Interactions with Methylated Histone Tails; also: nearly all actives have a fitted effect of over 70% in size
Settings: AlphaScreen HP1-beta / biotin-H3K9me3 peptide binding; series mostly up to 114 µM; activity change, negative = inhibition: at the top concentration
Outline: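 HP1-beta protein (50 nM final) preincubated 30 min at room temperature with biotinylated H3(1-18)K9me3 peptide (50 nM) in PBS pH 7.4, 0.01% Tween-20, then compound added for 30 min. AlphaScreen streptavidin donor/nickel chelate acceptor beads (10 ug/mL final), 30 min dark, luminescence read.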
Potency is read from the fitted curve at half-maximal effect; tags tell the direction and shape of the fitted curve.

| Compound | Potency | activity change, negative = inhibition |
| --- | --- | --- |
| N#Cc1nc(-c2ccccc2Cl)oc1N1CCOCC1 | inconclusive: 79.4 µM [inhibitor, partial curve] | – |
| CCOC(=O)c1oc2ccc(CNC3CCCCC3)c(Cl)c2c1C | inconclusive: 56.2 µM [inhibitor, partial curve] | – |
| O=C(NCc1cccs1)C1(S(=O)(=O)c2ccccc2)CC=CC1 | – | inactive: 38.5% |
| CCOC(=O)c1c(-c2ccc(-c3ccccc3)cc2)csc1NC(=O)C1C2CCC(O2)C1C(=O)O (stereo unspecified) | inconclusive: 15.8 µM [inhibitor, full curve] | – |
| COc1ccc(CN(CCc2ccccc2)Cc2ccccc2)cc1OC | inconclusive: 31.6 µM [inhibitor, single point] | – |
| O=[N+]([O-])c1ccc(N2CCN(CCOCCO)CC2)c([N+](=O)[O-])c1 | inconclusive: 17.8 µM [inhibitor, full curve] | – |
| C=CCc1cccc(/C=N/c2ncn[nH]2)c1O | – | inactive: 11.3% |
| CN(/N=C/c1ccc(-c2ccc([N+](=O)[O-])cc2)o1)c1ccccc1 | inconclusive: 15.8 µM [inhibitor, full curve, poor fit] | – |
| COc1ccc(CN2CCSCC2)cc1O | inconclusive: 50.1 µM [inhibitor, partial curve, poor fit] | – |
| CCCOc1ccc(-c2nc(C#N)c(N3CCc4ccccc4C3)o2)cc1 | inconclusive: 8.91 µM [inhibitor, partial curve, poor fit] | – |
| Cc1cc(C)n2nc3nc(N4CCCC4)nc(-c4ccccc4)c3c2n1 | – | inactive: 50.5% |
| CN(C)CCN(C(=O)c1ccc2c(c1)CCCC2)c1nc2c(F)cccc2s1 | inconclusive: 50.1 µM [inhibitor, partial curve] | – |
| CCN1CCN(CCNC(=O)c2ccc(/C=C3/Sc4ccccc4N(Cc4cccc(Cl)c4)C3=O)cc2)CC1 | inconclusive: 44.7 µM [inhibitor, partial curve] | – |
| O=C(Nc1ccccc1)/C(=C\c1ccco1)NC(=O)c1ccco1 | inconclusive: 70.8 µM [inhibitor, partial curve] | – |
| N#Cc1nc(-c2ccco2)oc1N1CCN(c2cccc(Cl)c2)CC1 | inconclusive: 22.4 µM [inhibitor, single point] | – |
| O=C(COC(=O)c1ncc(Cl)c(Cl)c1Cl)c1ccc(Cl)s1 | – | inactive: 65% |
| Cc1nc2sc(C(=O)Nc3ccccc3)c(N)c2c(C)c1[N+](=O)[O-] | inconclusive: 11.2 µM [inhibitor, partial curve] | – |
| O=C(CSc1n[nH]c(-c2ccccn2)n1)Nc1cccc(Cl)c1 | – | inactive: 47% |
| CC1CCN(CCOCCOc2ccc(Br)cc2Cl)CC1 | inconclusive: 50.1 µM [inhibitor, partial curve, poor fit] | – |
| O=C(O)c1ccc(NC(=O)c2ccccc2NC(=O)c2cccc(Br)c2)cc1 | – | inactive: 1.36% |
| COc1ccc(Nc2ccc([N+](=O)[O-])c3nonc23)c(OC)c1 | inconclusive: 14.1 µM [inhibitor, partial curve] | – |
| CCN(CC(=O)Nc1cc(Cl)ccc1C)C(=O)C1CC1 | – | inactive: 14.4% |

| Compound | Potency | activity change, negative = inhibition |
| --- | --- | --- |
| O=C(OCC(=O)N1CCN(C(=O)c2ccco2)CC1)c1cc(-c2ccco2)nc2ccccc12 | active: 31.6 µM | – |
| COc1ccc(CNCc2ccc([N+](=O)[O-])cc2)cc1OC | inconclusive: 14.1 µM [inhibitor, full curve] | – |
| COc1cc(CN2CCN(C(=O)c3ccc(-c4ccccc4)cc3)CC2)cc(OC)c1OC | inconclusive: 15.8 µM [inhibitor, full curve, poor fit] | – |
| COc1ccc(N=C2NN=C(c3ccc4c(c3)OCCO4)CS2)cc1 | inconclusive: 25.1 µM [inhibitor, partial curve, poor fit] | – |
| NC(=O)CSc1nc2c(sc(=S)n2-c2ccccc2)c(=O)[nH]1 | – | inactive: 23.3% |
| Cc1ccc(NC(=O)CCc2c(C)nc3nc(C)nn3c2C)c(Cl)c1 | – | inactive: 47.2% |
| Cc1ccc(C)c(NC(=S)c2ccc3ccccc3n2)c1 | inconclusive: 20 µM [inhibitor, full curve, poor fit] | – |
| COc1ccc(C2C=C(c3ccc(C)c(C)c3)Nc3ncnn32)c(OC)c1OC (stereo unspecified) | – | inactive: 47.3% |
| O=C1N=C(N2CCCC2)CN1c1ccccc1 | – | inactive: 23.3% |
| Cc1sc(N)nc1C12CC3CC(CC(C3)C1)C2 | inconclusive: 70.8 µM [inhibitor, partial curve] | – |
| CC(=O)OCCNc1cc(Sc2nc3ccccc3[nH]2)c2nonc2c1[N+](=O)[O-] | inconclusive: 56.2 µM [inhibitor, single point] | – |
| COc1cc(NC(=O)c2ccc3c(c2)OCO3)ccc1NC(=O)C(C)C | inconclusive: 39.8 µM [inhibitor, single point] | – |
| COc1ccc(CCNCC(O)COc2ccc(OC)cc2C(C)(C)C)cc1 (stereo unspecified) | inconclusive: 50.1 µM [inhibitor, partial curve, poor fit] | – |
| CCOC(=O)N1CCN(C(=O)CSc2nnc3[nH]c(=O)c(C)c(C)n23)CC1 | – | inactive: 35.2% |
| COc1ccc(CNC(=O)CN(C)Cc2ccc(C(C)(C)C)cc2)cc1 | inconclusive: 14.1 µM [inhibitor, full curve] | – |
| O=C(Nc1nnc(SCc2ccc(F)cc2)s1)c1cccnc1Cl | – | inactive: 30.2% |
| CCOc1cc(/C=N/NC(=O)c2ccc(-c3csc(Nc4ccc(C)cc4)n3)cc2)ccc1OCC(=O)O | – | inactive: 18.4% |
| CCOc1ccccc1CN(CCc1ccc2c(c1)OCO2)Cc1cccc(OC)c1OC | inconclusive: 12.6 µM [inhibitor, full curve, poor fit] | – |
| Nc1nc(SCC(=O)c2cc3ccccc3o2)n[nH]1 | inconclusive: 44.7 µM [inhibitor, partial curve] | – |
| CCN1C(=O)[C@H]2[C@@H](c3ccc(-c4ccc(Cl)c(Cl)c4)c(OC)c3)N3CCCC[C@@]3(C(=O)OC)[C@H]2C1=O | – | inactive: 20.5% |
| COCCSc1ccccc1C(=O)Nc1cc(C)on1 | inconclusive: 79.4 µM [inhibitor, single point] | – |
| Cc1ccc(C2C(=O)N(C3CCCCCC3)CC(=O)N2C(C)C)cc1 (stereo unspecified) | – | inactive: 29.9% |

| Compound | Potency | activity change, negative = inhibition |
| --- | --- | --- |
| CC(C)C[C@@H](C(=O)NC1CCN(Cc2ccccc2)CC1)N1C(=O)N2CCc3c([nH]c4ccccc34)[C@@]2(C)C1=O | inconclusive: 28.2 µM [inhibitor, partial curve, poor fit] | – |
| CC(NC(=O)C12CC3CC(CC(C3)C1)C2)C(=O)N/N=C/C1=C(N2CCOCC2)C(=C\c2cccc([N+](=O)[O-])c2)/CC1 (stereo unspecified) | – | inactive: -3.28% |
| COc1ccccc1N1CCN(S(=O)(=O)c2ccc(-c3ccno3)cc2OC)CC1 | – | inactive: 12.1% |
| O=C(Nc1cc2c3c(c1)C1CCCC1CN3CC1CCCC21)c1ccc([N+](=O)[O-])cc1 (stereo unspecified) | active: 11.2 µM | – |
| CN1CCN(c2oc(-c3ccccc3Cl)nc2S(=O)(=O)c2ccccc2)CC1 | inconclusive: 79.4 µM [inhibitor, partial curve, poor fit] | – |
| CCN(CC)C(=O)Cn1nc(-c2ccc(Cl)cc2)c2ccccc2c1=O | inconclusive: 89.1 µM [inhibitor, partial curve, poor fit] | – |
| O=C(COc1ccccc1Cl)N1CCN(c2ccc([N+](=O)[O-])c(N3CCCCC3)c2)CC1 | inconclusive: 39.8 µM [inhibitor, partial curve] | – |
| CCOc1cc(/C=N/Nc2nnc(C)n2N)ccc1O | – | inactive: 18.3% |
| O=C(O/N=C\c1ccc(N2CCCCC2)c([N+](=O)[O-])c1)c1c(F)cccc1F | inconclusive: 15.8 µM [inhibitor, partial curve, poor fit] | – |
| O=C(NNS(=O)(=O)c1ccc([N+](=O)[O-])cc1)c1ccc([N+](=O)[O-])cc1 | inconclusive: 89.1 µM [inhibitor, partial curve, poor fit] | – |
| Cc1ccc(CN2C(=O)C(O)(CC(=O)c3ccc(C)cc3)c3ccccc32)cc1 (stereo unspecified) | inconclusive: 22.4 µM [inhibitor, full curve] | – |
| O=C(/C=C/c1ccc2c(c1)OCCCO2)c1ccccc1O | inconclusive: 20 µM [inhibitor, partial curve, poor fit] | – |
| O=C(/C=C/c1ccc(Cl)cc1)NC(=S)Nc1ccc(C(=O)O)cc1 | inconclusive: 50.1 µM [inhibitor, partial curve] | – |
| CCOC(=O)C[n+]1c(C)sc2ccc(OC)cc21 | inconclusive: 22.4 µM [inhibitor, full curve] | – |
| FC(F)Sc1ccc(N=C2NN=C(c3ccc4c(c3)OCCO4)CS2)cc1 | inconclusive: 35.5 µM [inhibitor, partial curve] | – |
| CC[n+]1c(/C=C/C=C/N(C(C)=O)c2ccccc2)sc2cc(OC)ccc21 | inconclusive: 79.4 µM [inhibitor, partial curve, poor fit] | – |
| O=C(NCCCn1ccnc1)/C(=C/c1ccco1)NC(=O)c1ccco1 | inconclusive: 79.4 µM [inhibitor, partial curve, poor fit] | – |
| CC(=O)Nc1ccc(Sc2ccccc2C(=O)Nc2ccc(F)cc2)cn1 | inconclusive: 35.5 µM [inhibitor, single point] | – |
| CCOc1ccc(C(=O)NC(=S)Nc2ccc(N3CCOCC3)c(Cl)c2)cc1[N+](=O)[O-] | inconclusive: 25.1 µM [inhibitor, single point] | – |
| O=[N+]([O-])c1cccc2c(S(=O)(=O)N3CCCCC3)cccc12 | inconclusive: 50.1 µM [inhibitor, partial curve] | – |
| N#Cc1c(N)sc2c1CCN(C(=O)OCc1ccccc1)C2 | inconclusive: 25.1 µM [inhibitor, full curve, poor fit] | – |
| CCOc1ccc(Nc2c3ccccc3nc3ccccc23)cc1 | inconclusive: 17.8 µM [inhibitor, full curve] | – |
